Reference: paper PMC12136788
Some of the results follow.

B1: chr19:38409054:38410039:-|three_prime_utr|ENSG00000171777|control|control|control (ssRNA)
RNA: GGGAGUUCUACAGUCCGACGAUCCUCCCUUCCCCCAGUCAGUCCUGAGUCCUGCCGUCAGACUCUGGCAGGGCUCCCAGAGGUAGGCCUCCAGAGGCAUCCGCCUUCCCAUCCACACUGCCUUUAGUGGUACGUCCGUCAUCUCAACAGAGGAUUGAGCAUCA
B2: chr12:64421256:64421371:+|CDS|ENSG00000184575|unk|total|mutant (ssRNA)
RNA: GGGAGUUCUACAGUCCGACGAUCGUUGACUUCCUGGCCAGAUUUUCUAAGUUGGUAAAUGGAAUGGGACAGUCAUUGACCGUCCGUUGGAGUAAAUUAAUUAAGAAUGGGGAUAUUAAGAAUGCUCAAGAGGCACUACAAGCUCAACAGAGGAUUGAGCAUCA
B3: chr15:64675409:64675510:+|CDS|ENSG00000180357|msi1|FALSE|bound_elsewhere (ssRNA)
RNA: GGGAGUUCUACAGUCCGACGAUCAACCAACAGCCCUGCAUACUCUGACAUCUCUGAUGCUGGGGAGGAUGGGGAGGGCAAGGUAGACAGUGUCAAAUCAAAGGACGCCGAACAGUUGGUUAAAGAAGGGGCUAAGAAAACUCUCAACAGAGGAUUGAGCAUCA
B4: chr2:43888187:43888297:-|3pUTR|ENSG00000138095|unk|total|mutant (ssRNA)
RNA: GGGAGUUCUACAGUCCGACGAUCAAAAUGUUAUUCCUUUAUUUAAGAUUCACUUAUCCGUCUGCUGUUUCUCUGAAAAAUUUCCGAGCCCGGUACCGUGACCGUGAACUUUCUAACGCAUAAUAUUCUGUGAUACAGCCAUUCCAACAGAGGAUUGAGCAUCA
B5: chr1:113764432:113764533:-|3pUTR|ENSG00000081019|msi1|total|mutant (ssRNA)
RNA: GGGAGUUCUACAGUCCGACGAUCAAAAUAUUCUGAAACCGGUUAAAUCUUAUAUAAAUAUUACUUUGUGCAAUAUUGUUGUGCCGUUAAAUGCAUAUCCGCAAAGUACCGAGGUCACUGUGUAAACCGACCGAAAAGUAACCACAACAGAGGAUUGAGCAUCA
B6: ENSG00000124766:be:win_1801|3pUTR|ENSG00000124766|bound_else_gene|NA|bound_elsewhere_windowed (ssRNA)
RNA: GGGAGUUCUACAGUCCGACGAUCGAGCUUCCGGACUUGUCUGCACCCCCAGCAAGAAGGCGAGUUAGUUUUCUAGAGACUUGAAGGAGUCUCCCCCUUCCUGCAUCACCACCUUGGUUUUGUUUUAUUUUGCUUCUUGGUCAACAACAGAGGAUUGAGCAUCA
B7: chr10:32268825:32268926:-|3pUTR|ENSG00000120616|unk|total|mutant (ssRNA)
RNA: GGGAGUUCUACAGUCCGACGAUCUGGGGACUUGACAGCAAUGCUCAUCUCUCAUGCUUCAAUUUUUCUUUUCUUACUGUUAACCGGAAAAAAAUCAACAUCUGUAAAUUAAGAAUACAGCAAUUAUCUGUACAGUACUGCAUACAACAGAGGAUUGAGCAUCA
B8: chr5:72990507:72990614:+|CDS|ENSG00000157107|unk|total|mutant (ssRNA)
RNA: GGGAGUUCUACAGUCCGACGAUCGUAUGGGAUGUAUUCAAAACAUCUACAGAGAAAUCCGCAAAUUGUCACUUGGAUCUUGUCCGAAAAUUACAAGAAUUAAUAAAGGAAGUUCAGAAGUAUGGAGAAGAACAAGUAAAGUCUCAACAGAGGAUUGAGCAUCA
B9: chr13:106490488:106490589:-|3pUTR|ENSG00000125266|msi1|total|mutant (ssRNA)
RNA: GGGAGUUCUACAGUCCGACGAUCAGCCAUCAGAAGUUACUUUCCGGAUGGGGGAGAGGGGCGAGAAGGGGAAAAAUGGGAAACCGUCUGAUUUUAAUGAAAUCAAAUGUAUGUAUCAUCAGUUGGCUACGUUUUGGUUCUAUGCAACAGAGGAUUGAGCAUCA
B10: chr13:98915392:98915499:-|CDS|ENSG00000088387|unk|total|mutant (ssRNA)
RNA: GGGAGUUCUACAGUCCGACGAUCUCAUUUCAGAACAACAAAGUCAGGCGUUUUGCUUUUGAGCUCAAGAUGCAGGACAAAAGCCGUUAUCUCUUGGCAGCAGACAGUGAAGUGGAAAUGGAAGAAUGGAUCACAAUUCUAAAUCAACAGAGGAUUGAGCAUCA
B11: chr11:118254921:118255022:-|3pUTR|ENSG00000149573|unk|total|mutant (ssRNA)
RNA: GGGAGUUCUACAGUCCGACGAUCACAGCCUCAUUAUUAAGGUCUUAUUUAAUUUCAGAGUGUAAAUUUUUUCAAGUGCUCAUCCGGUUUUAUAAACAAGAAGCUACAUUUUUGCCCUUAAGACACUACUUACAGUGUUAUGACCAACAGAGGAUUGAGCAUCA
B12: chr1:108222463:108223704:-|three_prime_utr|ENSG00000196427|control|control|control (ssRNA)
RNA: GGGAGUUCUACAGUCCGACGAUCACUAUGCUCCUUUGAUUUGAGAAGCCACAUUCCAUCCCCCUCCAAUUGUGAUCAAUACCUAGGGAGACCAAUGCCCAGAUGGACAAAUAGCAUUGACCGGCGUUAGCCCUGUUUCUCAAUCAACAGAGGAUUGAGCAUCA
B13: ENSG00000198589:be:win_351|CDS|ENSG00000198589|bound_else_gene|NA|bound_elsewhere_windowed (ssRNA)
RNA: GGGAGUUCUACAGUCCGACGAUCUCUGAAGAAAAGCAUACGGAAUCUUCAAGUCUGCACUGAAGUAGGCCUUGUUGAAAAAGUGCUUGGGAAAAUUGAAAAAGUUGACAAUAUGAUAGCAGAUCUUUUGGUUGACAUGUUGGGCAACAGAGGAUUGAGCAUCA
B14: chrX:101268252:101269192:-|three_prime_utr|ENSG00000102387|control|control|control (ssRNA)
RNA: GGGAGUUCUACAGUCCGACGAUCGUUGAAUCAGUUAUAUUUAUCUGUACCUUCUUUGCUACUUAAAAUAUGCUCACAGUUUGUAGUCAUGUAGAAAAGGCCAGUAUAAAAAUGUAGUAGACUUAAAGACCCCACUCGACCAUGCAACAGAGGAUUGAGCAUCA

Molecular target: T1, UNK ZnF1-6 (called full-length) (human, UniProt Q9C0B0 30-357)
T1 sequence: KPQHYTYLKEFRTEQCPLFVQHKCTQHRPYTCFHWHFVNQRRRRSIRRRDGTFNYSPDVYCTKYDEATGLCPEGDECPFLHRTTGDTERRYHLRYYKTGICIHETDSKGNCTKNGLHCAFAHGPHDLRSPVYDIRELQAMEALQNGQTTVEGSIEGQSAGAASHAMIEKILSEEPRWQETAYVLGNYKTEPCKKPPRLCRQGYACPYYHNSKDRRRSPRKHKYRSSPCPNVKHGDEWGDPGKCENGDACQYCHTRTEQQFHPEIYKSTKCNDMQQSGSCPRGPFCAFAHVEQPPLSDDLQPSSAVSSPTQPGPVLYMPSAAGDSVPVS
Test: nsRBNS (natural sequence RNA bind-n-seq); RBNS binding buffer (assumed for nsRBNS): 25 mM Tris pH 7.5, 150 mM KCl, 3 mM MgCl2, 0.01% Triton X-100, 500 ug/ml BSA, 20 U/ml SUPERase-In, 4 C; UNK is unkempt and MSI1 is Musashi-1; names of the RNAs are library labels; protein concentration not given here; high values mean tight binding

Row | Binder | binding signal [enrichment R]
1 | B1 | 1.01
2 | B2 | 0.682
3 | B3 | 0.674
4 | B4 | 0.441
5 | B5 | 0.639
6 | B6 | 1.02
7 | B7 | 0.524
8 | B8 | 0.43
9 | B9 | 0.93
10 | B10 | 0.466
11 | B11 | 0.694
12 | B12 | 0.526
13 | B13 | 0.291
14 | B14 | 0.707
